We go through 89 molecules from PubChem BioAssay AID463173 (ICCB-Longwood Screening Facility, Harvard Medical School, 2010).

The campaign covered roughly 52,000 compounds. About 4,300 (8.3%) were called active. Rule as the data show it: active = survival mostly below about 52% (no sharp cut-off); inactive = mostly above about 56%. The list shows a part of the results.

This experiment concerns DeltatarO mutant. Nature of the experiment: S. aureus survival, RN4220 and DeltatarO strains – OD600, teichoic acid synthesis inhibitors, primary screen (AID 463173). To be noted: S. aureus RN4220 wild type/DeltatarO growth, OD600, 18 h, hits give low values, screened at 18.75 µg/mL (by protocol).
For `Cc1ccc(NC(=O)CN2C(=O)CC(c3ccco3)Sc3ccccc32)cc1Cl` (centres undefined), the survival was inactive: 86%.
For `O=C1OC2(CCCC2)OC(=O)C1=CNc1ccccc1` the value was inactive: 96%.
Then `COc1ccc(-c2csc(NC(=O)C(C)C)n2)cc1`, with inactive: 84%; and `COc1ccc(NC(=O)c2oc3ccccc3c2NC(=O)c2cc3ccccc3o2)c(OC)c1`, with inactive: 72%.
Then `CCCCc1ccc(NC(=O)CSc2nc3ccccc3nc2N2CCCCC2)cc1`, with active: 30%.
`CCOC(=O)c1ccc(NC(=O)CS(=O)(=O)Cc2nc(-c3ccc(C)cc3)oc2C)cc1`: the survival is inactive: 95%.
Then `CCCNC(=O)CCc1c(C)nc2nc(CNC(=O)c3ccccc3)nn2c1C`, with inactive: 89%; and `COC(=O)c1c(-c2ccc(Cl)cc2)noc1N1CCN(c2ccc(C(C)=O)cc2)CC1`, with inactive: 81%.
Then `COc1ccc(-c2csc(C)n2)cc1`, with inactive: 75%; and `Cc1ccc(C(=O)O)cc1NC(=O)c1nsc2ccccc12`, with inactive: 103%; and `COc1ccc(CCNC(=O)CN2C(=O)COc3ccc(S(=O)(=O)N4CCCC4)cc32)cc1OC`, with inactive: 90%.
For the molecule `Cc1cc(Cl)ccc1NC(=O)CSc1nc2c(c(=O)[nH]1)CCC2`, the survival was inactive: 80%.
Turning to `C/C=N/NC(=O)CSc1nc2ccccc2s1`, the survival was inactive: 96%.
Then `COC(=O)c1sc(N2C(=O)c3oc4ccc(C)cc4c(=O)c3C2c2ccc(OC)cc2)nc1C` (centres undefined), with inactive: 179%; and `CCCOc1ccc(Oc2nc(NC)nc(N3CCOCC3)n2)nn1`, with inactive: 99%; and `Cc1ccc(NC(=O)C(=O)NCC(c2cccnc2)N2CCN(Cc3ccccc3)CC2)cc1Cl` (centres undefined), with inactive: 72%.
Then `COc1cc(OC)c(NC(=O)Nc2ccc3c(c2)N(C)C(=O)c2ccccc2S3)cc1Cl`, with inactive: 98%.
Regarding `Cc1ccc(-c2onc(C)c2C)cc1S(=O)(=O)N1CCN(c2ccccc2F)CC1`, the survival was inactive: 80%.
For `C=CCNC(=O)c1cc2n(n1)C(C(F)(F)F)CC(c1ccco1)N2` (centres undefined) the value was inactive: 80%.
Then `COc1cc(OC)cc(-n2c(=O)c3sccc3n(Cc3ccc(F)cc3)c2=O)c1`, with inactive: 160%; and `COc1cc(C(CC(=O)NCc2ccccc2Cl)N2Cc3ccccc3C2=O)cc(OC)c1OC` (centres undefined), with inactive: 73%.
Then `COc1cccc(NC(=O)CCNC(=O)Cn2cnc3ccccc3c2=O)c1`, with inactive: 83%; and `CCn1c2ccccc2c2cc(CN3CCN(Cc4cccc(Cl)c4)CC3)ccc21`, with active: -1%; and `CCOc1ccccc1CNC(=O)c1ccc(-n2c(C)cc3c2CCC(C)C3)cc1` (centres undefined), with inactive: 90%.
As for `COC(=O)c1ccccc1NC(=O)CCCn1nc(C)c2c(C)n(-c3ccccc3)nc2c1=O`, the survival was inactive: 102%.
Turning to `COc1ccc(CNC(=O)c2ccc3c(c2)nc2n3CCCCC2)cc1`, the survival was inactive: 89%.
For `Cc1ccc(NS(=O)(=O)c2ccc3c(c2)N(C)C(=O)CC(=O)N3C)cc1Cl` the value was inactive: 72%.
Then `Cc1ccc(-n2c(=O)c3ccc(C(=O)NCc4ccco4)cc3n(CC(=O)Nc3ccc(C)c(F)c3)c2=O)cc1`, with inactive: 84%; and `CCC1CN(C(=O)N2CCC(C(=O)N3CCN(c4ccccc4)CC3)CC2)c2ccccc2O1` (centres undefined), with inactive: 66%.
Regarding `CCOC(=O)N1CCc2c(sc(NCc3ccc(N(CC)CC)cc3)c2C(=O)Nc2cc(OC)ccc2OC)C1`, the survival is inactive: 71%.
For `CCOc1ccc(-n2c(SCC(=O)NCc3ccccc3)nc3n[nH]c(C)c3c2=N)cc1` the value was inactive: 130%.
Then `O=S(=O)(NCC(c1cccs1)S(=O)(=O)c1ccccc1)c1ccccc1` (centres undefined), with inactive: 115%; and `N#CCCCN1C(=O)C(=C(C#N)C#N)c2ccccc21`, with inactive: 75%.
For `CCOc1ccccc1NC(=O)c1c2c(nc3ccccc13)C(=O)N(C1CCCCC1)C2` the value was inactive: 55%; for `CCOc1ccc(C(=O)Nc2ccc3oc(-c4ccc(C)cc4C)nc3c2)cc1Br`, inactive: 61%; for `C=CCNC(=O)C1CCN(S(=O)(=O)c2cccc(C(F)(F)F)c2)CC1`, inactive: 65%.
Take `CCOc1ccc(NC(=O)Cn2c(=O)n(CCCCC(=O)NCCc3ccc(Cl)cc3)c(=O)c3ccccc32)cc1`: the survival was inactive: 111%.
For `O=C(C1CCC(CNS(=O)(=O)c2ccc(Br)s2)CC1)N1CCN(c2ccc(F)cc2)CC1` (centres undefined) the value was inactive: 74%; for `CCc1ccccc1NC(=O)CC1NCCNC1=O` (centres undefined), inactive: 78%.
For `CNC(=S)N1CCN(c2ccccc2F)CC1` the value was inactive: 107%; for `CCCCC(=O)N1CCc2cc(OC)c(OC)cc2C1COc1ccc(C(=O)OCC)cc1` (centres undefined), inactive: 70%.
For `Cc1cccc(C(=O)n2nc(C)c(S(=O)(=O)N3CCOCC3)c2C)c1` the value was inactive: 97%; for `CCOc1ccccc1NS(=O)(=O)c1cc2[nH]c(=O)c(=O)[nH]c2cc1C`, inactive: 71%; for `COc1ccc(Cn2ccc3nc(C)c(C(=O)Nc4cc(OC)c(OC)c(OC)c4)cc3c2=O)cc1`, inactive: 99%.
`CCOc1ccc(Sc2cc(C(=O)NCc3ccc(C)cc3)c3ccccc3n2)cc1`: the survival is inactive: 99%.
For `COCCCn1c(=N)c(C(=O)NC2CCCC2)cc2c(=O)n3cccc(C)c3nc21` the value was inactive: 139%.
Regarding `Cc1cc(C)n(C(C)CC(=O)Nc2ccc(Cl)cc2C)n1` (centres undefined), the survival was inactive: 75%.
On to `COc1cccc(CN2C(=O)C3(SCC(=O)N3c3ccc(C)c(Cl)c3)c3ccccc32)c1` (centres undefined), for which the survival was active: 52%.
Then `CC1Cc2cc(S(=O)(=O)CCC(=O)Nc3ccccc3F)ccc2N1C(=O)C1CC1` (centres undefined), with inactive: 100%; and `CCOc1ccc(NC(=O)CCc2c(C)nc3cc(-c4ccccc4OC)nn3c2C)cc1`, with active: 53%; and `COC(=O)c1ccc(CSc2c(C(C)C)cnc3c2c(=O)n(C)c(=O)n3C)cc1`, with inactive: 90%.
For the molecule `Cc1c(NC(=O)Nc2ccc(Cl)c(Cl)c2)sc2nc3n(c(=O)c12)CCC(C)CC3` (centres undefined), the survival is inactive: 93%.
For `Cc1ccc(N(C)S(=O)(=O)c2ccc3[nH]c(=O)ccc3c2)cc1` the value was inactive: 87%; for `Cc1ccc(NC(=O)c2sc3ncnc(N(C)C4CCCCC4)c3c2C)c(C)c1`, inactive: 93%; for `O=C(c1ccc(CS(=O)(=O)c2ccc(Br)cc2)o1)N1CCN(c2ccc(F)cc2)CC1`, inactive: 118%.
With `Nc1c(C(=O)NCc2cccs2)nnn1CC(=O)Nc1cccc(F)c1`, the survival was inactive: 92%.
For `COC(=O)c1scc(-c2ccc(C)cc2)c1S(=O)(=O)N1CCN(c2ccc(F)cc2)CC1` the value was active: -4%; for `CCC1CCCCN1C(=O)c1c[nH]c2ccc(S(=O)(=O)Nc3cccc(OC)c3)cc2c1=O` (centres undefined), inactive: 91%; for `O=C(NCc1ccco1)c1ccc2c(c1)N(Cc1ccccc1)C(=O)c1ccccc1S2`, inactive: 115%.
Then `O=C(NC1CCCCC1)c1ccc(CSc2nc3cccnc3n2Cc2cccc(F)c2)cc1`, with inactive: 83%; and `Cc1cc(C)cc(-n2ccn(CC(=O)c3ccc(F)cc3)c(=O)c2=O)c1`, with inactive: 103%.
For `O=C(Nc1cccc(Br)c1)N1CCN2CCCCC2C1` (centres undefined) the value was inactive: 86%; for `CC(=O)Nc1c(C(=O)O)oc2ccc(Cl)cc12`, active: 58%; for `CCCNC(=O)Cn1nc(-c2ccc(OC)cc2)c2cnc3ccc(F)cc3c21`, inactive: 71%.
In the case of `COc1ccc(OC)c(CNC(=O)c2cc3c(Cl)nc4ccccc4c3s2)c1`, the survival is inactive: 77%.
Then `Cc1cccc(NC(=O)/C(C#N)=C/c2ccco2)c1`, with inactive: 74%; and `CCOc1ccc(-n2c(C)nc3cc(C(=O)NC4CCCC4)ccc32)cc1`, with inactive: 76%.
For `COc1ccccc1CC(=O)Nc1ccc2nc(Nc3cccc(C(F)(F)F)c3)cc(C)c2c1` the value was inactive: 92%; for `N#C/C(=C\c1ccc(OCc2ccc(Cl)cc2Cl)cc1)c1nc2ccccc2[nH]1`, inactive: 103%; for `O=C(Nc1nc2n(n1)C(c1ccc(F)cc1)C=C(c1ccc(Cl)cc1)N2)c1ccc([N+](=O)[O-])cc1` (centres undefined), inactive: 64%.
With `Cc1cccc(C2=Nc3ccccc3N=C(c3cc(Cl)ccc3O)C2)c1`, the survival is inactive: 52%.
For `Cc1oc2c(cc(NS(=O)(=O)c3ccc(C(C)C)cc3)c3ccccc32)c1C(=O)OCc1ccccc1` the value was inactive: 81%; for `CSc1ccc(CNC(=O)Cn2nc(N3CCN(c4ccccc4)CC3)ccc2=O)cc1`, inactive: 76%; for `Cc1ccccc1CNC(=O)C(=O)NCC(c1ccco1)S(=O)(=O)c1cccs1` (centres undefined), inactive: 70%.
For `COc1cccc(NC(=O)CSc2nnc(-c3cccc(OC)c3)o2)c1` the value was inactive: 71%; for `COc1ccccc1CNS(=O)(=O)Cc1ccccc1`, inactive: 70%.
For `CCc1ccc(NC(=O)CC2C(=O)NCCN2C(=O)c2ccc(F)cc2)cc1` (centres undefined) the value was inactive: 90%; for `CCc1ccc(NC(=O)NCCc2c(C)nn(C)c2C)cc1`, inactive: 72%; for `COc1ccc(S(=O)(=O)c2c(Nc3ccccc3F)sc(C(=O)c3cccc(OC)c3)c2N)cc1`, inactive: 97%.
On to `COc1ccc(C(=O)Nc2ccccc2C(=O)NCc2ccco2)cc1`, for which the survival is inactive: 58%.
Regarding `COc1cccc(C2CC(=O)Nc3c2ccc(C)c3C)c1OC` (centres undefined), the survival was inactive: 94%.
For `CCOc1ccccc1CNC(=O)c1ccc(CS(=O)Cc2cccc(Cl)c2)o1` (centres undefined) the value was inactive: 79%; for `CSc1ccc(C2C(C(=O)Nc3ccccc3)=C(C)Nc3nc4ccccc4n32)cc1` (centres undefined), inactive: 63%.
For `Cc1cccc(NC(=O)CSc2nnc(NC(=O)Nc3ccccc3)s2)c1C` the value was inactive: 93%; for `COc1cc(OC)c(NC(=O)N2CCc3c([nH]c4ccccc34)C2c2ccccc2F)cc1Cl` (centres undefined), inactive: 91%; for `O=C(Nc1ccccc1F)c1ccc(Cn2nc(N3CCN(c4ccccc4)CC3)ccc2=O)o1`, inactive: 83%.
For `Cc1cc(C)c(NC(=O)CN2C(=O)c3cccnc3Sc3ccccc32)c(C)c1` the value was inactive: 83%.
On to `O=C(CCC(=O)N1CC2CCCN2c2ccccc21)NCc1ccc(F)cc1` (centres undefined), for which the survival was active: 0%.
Then `O=C(Nc1ccc2nc(SCC(=O)N3CCc4ccccc43)sc2c1)c1ccccc1`, with inactive: 79%.
